Results published in the supplement of paper PMC3334620.
In all, about 33,000 sequences were measured (“E-score (-0.5 to 0.5)”: median about -0.054, highest 2% from about 0.35 on). Some of the results follow.

Biological target: T1, Stb5 (UniProt P38699)
T1 sequence: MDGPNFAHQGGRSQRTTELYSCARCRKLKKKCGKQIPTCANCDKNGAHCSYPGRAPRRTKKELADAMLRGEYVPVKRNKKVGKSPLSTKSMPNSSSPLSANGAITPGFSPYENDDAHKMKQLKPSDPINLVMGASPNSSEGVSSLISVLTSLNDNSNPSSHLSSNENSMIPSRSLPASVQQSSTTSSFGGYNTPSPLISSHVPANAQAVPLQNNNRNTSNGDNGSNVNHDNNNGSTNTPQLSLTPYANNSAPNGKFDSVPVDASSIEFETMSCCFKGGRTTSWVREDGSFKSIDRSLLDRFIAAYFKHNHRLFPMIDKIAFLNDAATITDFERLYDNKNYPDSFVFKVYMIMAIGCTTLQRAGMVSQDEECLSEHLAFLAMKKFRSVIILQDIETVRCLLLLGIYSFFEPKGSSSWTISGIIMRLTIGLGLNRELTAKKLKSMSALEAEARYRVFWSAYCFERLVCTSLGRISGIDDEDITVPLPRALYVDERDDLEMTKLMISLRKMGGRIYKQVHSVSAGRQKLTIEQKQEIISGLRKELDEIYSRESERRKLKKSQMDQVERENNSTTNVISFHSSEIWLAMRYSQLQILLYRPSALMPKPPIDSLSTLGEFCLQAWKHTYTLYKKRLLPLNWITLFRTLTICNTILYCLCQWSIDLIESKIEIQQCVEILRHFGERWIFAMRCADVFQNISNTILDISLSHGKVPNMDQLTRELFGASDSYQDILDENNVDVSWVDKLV
Experiment: PBM E-score (8-mer binding enrichment) (E-score (-0.5 to 0.5)); higher = stronger / more preferred TF binding; most listed sequences are background and not binding sites
Conditions: protein concentration: 200 nM; construct: GST-full length
Description: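 Universal 'all 10-mer' protein binding microarrays (Agilent AMADID 015681) probed with GST-tagged S. cerevisiae TFs (full-length or DBD) made by in vitro transcription/translation (PURExpress), about 100-200 nM. Bound TF was detected with fluorescent anti-GST. Each ungapped 8-mer (which stands for itself and its reverse complement) is scored by the PBM enrichment score (E-score), a modified Wilcoxon-Mann-Whitney statistic from -0.5 to +0.5, computed with the Universal PBM Analysis Suite. Scale: above 0.35 generally sequence-specific binding.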

| Sequence | PBM E-score |
| --- | --- |
| ACGTAACT | -0.117 |
| ATTGCGGG | 0.183 |
| AACGTTAT | 0.174 |
| AGTATTTG | -0.171 |
| GATGACGC | -0.0402 |
| AGAGCAAC | -0.181 |
| GAAAGACA | -0.0983 |
| CGCATGGC | 0.046 |
| CGGCAATC | 0.185 |
| AGTCACGA | -0.155 |
| CCGGAGGC | 0.131 |
| CTCTCACA | -0.138 |
| CGTTACTA | 0.0452 |
| CTGTGAGA | -0.266 |
| AAGCGCTC | 0.0272 |
| GTGTGCCA | -0.15 |
| ATTATCCG | 0.359 |
| AAGTCAAT | 0.0053 |
| ATTCCTAC | -0.0968 |
| AAGACCGA | 0.414 |
| AGCGCTAT | 0.128 |
| GCAGTTCA | -0.151 |

| Sequence | PBM E-score |
| --- | --- |
| CGTTCTGA | -0.179 |
| CCGGGTTA | 0.245 |
| AGAACTCG | -0.0793 |
| CAGGTTTC | -0.133 |
| CAAACACC | 0.352 |
| ATTCCGGC | 0.173 |
| CAATCTGC | 0.0358 |
| CAGCGTCC | 0.0636 |
| GATGAGTA | -0.219 |
| CTCTAAGA | 0.0752 |
| GACTCAAA | 0.013 |
| CCTGCCCC | 0.0235 |
| CCACTTAG | -0.247 |
| AACGCTCA | -0.111 |
| CTATTATC | 0.00658 |
| CAGTTTAG | -0.0908 |
| CGGGATGA | 0.196 |
| CAAACCTC | -0.132 |
| CGTCCTGA | -0.273 |
| CCCTCGTC | -0.0697 |
| CTCAAAAC | -0.0766 |
| ATAAGTGC | 0.242 |

| Sequence | PBM E-score |
| --- | --- |
| GAATCTTA | -0.147 |
| CAAAACCA | -0.119 |
| GTCTCAAA | -0.116 |
| GATTCACA | -0.0699 |
| AAAACCTG | -0.33 |
| GTAGGGAA | 0.0417 |
| GTGGCTGA | -0.0545 |
| ACAGCTTC | -0.199 |
| GTCTTACA | -0.23 |
| ACCTGCGA | -0.0142 |
| ATAGTTCC | 0.313 |
| AACTAACT | -0.00013 |
| GCCGGTAA | 0.28 |
| CATCTCGA | -0.287 |
| CCGGCCTC | 0.234 |
| TCAAAAGA | 0.0921 |
| GCAGAACC | 0.00461 |
| CAAATTCG | 0.221 |
| CCATCACG | 0.0916 |
| AGACTTGG | -0.17 |
| GTAGTGCA | -0.219 |
| ACACGACC | 0.109 |

| Sequence | PBM E-score |
| --- | --- |
| GAACTGTA | -0.0888 |
| CTGTCAAC | -0.214 |
| CTGCTCAC | -0.202 |
| CAAATAGG | -0.113 |
| GGCATCAA | 0.0936 |
| GACGACCA | -0.0704 |
| AATCAGCA | -0.155 |
| ACAACATA | -0.0153 |
| AGGAAACA | 0.0202 |
| AGGATAAA | -0.129 |
| AATTCGCG | 0.0722 |
| ACCAACGC | -0.0565 |
| CTGATGGC | -0.0621 |
| GTATTCTA | -0.0377 |
| ATTGTTAG | -0.0153 |
| TAGCTCGA | -0.0447 |
| AATTTGTA | -0.121 |
| CCTTCTGC | -0.0972 |
| ATCTATGG | -0.119 |
| AATGGGTG | -0.294 |
